Assay: soluble on expression in E. coli; label from the status in PepcDB or PDB records

Row | Sequence | soluble on expression in E. coli
1 | MASSTSLPAPGSRPKKPLGKMADWFRQTLLKKPKKRPNSPESTSSDASQPTSQDSPLPPSLSSVTSPSLPPTHASDSGSSRWSKDYDVCVCHSEEDLVAAQDLVSYLEGSTASLRCFLQLRDATPGGAIVSELCQALSSSHCRVLLITPGFLQDPWCKYQMLQALTEAPGAEGCTIPLLSGLSRAAYPPELRFMYYVDGRGPDGGFRQVKEAVMRYLQTLSWHLLYHGTPEIGVKLETENPCRASDSHKCDKRYRE | soluble
2 | MGSDKIHHHHHHASCDSFNEDLPECRLSVKFKYDYNMEFADAFHAQVDKVELYVFDKNGKYLFKQAEEGSALSTGNYLMEVELPVGQYQFMAWAGARDSYDITSLTPGVSTLTDLKLKLKREASLIINKRMETLWYGEVINVNFDGTVHQTETINLIRDTKIVRFGFQSYTGSWTLDMNDYDYEIIESNGHLGHDNSLLDDDVLSFRPYYMEQKDPATAYVDMNTMRLMEDRKTRLVLTEKASGKRVFDINLIDYLAMTNAEGKNLSTQEYLDRQSNYHIIFFLSESWLAVQIVVNGWVHRIQEENQ | not soluble

Source: the DeepSol protein solubility set
